{
  "source": "PubChem BioAssay AID686992",
  "about": "(Broad Institute, 2013)",
  "note": "Among all 260,000 compounds or so, about 960 (0.37%) were called active. This list was built around the results that the source calls inconclusive (neither active nor inactive); the mix of calls is not that of the screen.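 Rule for the calls: active = mean E-selectin-positive cell signal at least 10% of the positive control, reached in at least 60% of replicates, without over 20% cell loss; inconclusive = no rule given, readout overlaps actives, possibly toxicity-flagged; inactive = the rest, including those meeting only one limit.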",
  "data": [
    {"biological_target": "E-selectin (Homo sapiens) (UniProt P16581)", "sequence (P16581 whole entry, looked up)": "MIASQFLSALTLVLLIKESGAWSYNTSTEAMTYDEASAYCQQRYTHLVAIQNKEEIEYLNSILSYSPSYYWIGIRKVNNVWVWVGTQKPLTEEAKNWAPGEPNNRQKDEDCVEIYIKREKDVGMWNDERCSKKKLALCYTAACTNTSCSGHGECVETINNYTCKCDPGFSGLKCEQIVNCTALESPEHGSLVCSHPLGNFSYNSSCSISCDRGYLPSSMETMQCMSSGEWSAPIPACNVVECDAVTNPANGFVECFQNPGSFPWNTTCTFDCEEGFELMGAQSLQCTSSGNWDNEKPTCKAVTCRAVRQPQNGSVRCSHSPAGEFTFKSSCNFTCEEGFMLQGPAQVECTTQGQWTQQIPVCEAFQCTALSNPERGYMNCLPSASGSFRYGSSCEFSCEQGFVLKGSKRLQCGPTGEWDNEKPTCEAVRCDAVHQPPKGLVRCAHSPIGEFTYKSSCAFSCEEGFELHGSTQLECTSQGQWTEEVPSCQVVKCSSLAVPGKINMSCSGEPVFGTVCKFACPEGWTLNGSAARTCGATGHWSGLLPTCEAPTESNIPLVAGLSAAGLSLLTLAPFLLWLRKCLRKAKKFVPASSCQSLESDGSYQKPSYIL", "assay": "inducers of endothelial E-selectin expression – imaging, HUVEC, immunofluorescence imaging, single point, primary screen (AID 686992);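 note: signal is the percent of cells scored E-selectin positive by PE staining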", "conditions": "at 7.58 µM, stronger effect = higher value, normalized: neutral wells 0, TNF-alpha wells 100", "outline": "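Read-out basis: % PE-positive cells; Test system: HUVEC primary endothelial cells; Technique: immunofluorescence imaging; Dosing: single-point compound dose.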", "values": [
      {"smiles": "CCOC(=O)C1(Cc2cccc(OC)c2)CCN(Cc2ccccc2)CC1", "activation": "active: 32.6%"},
      {"smiles": "CNS(=O)(=O)c1cc(N)ccc1C", "activation": "inactive: 1.11%"},
      {"smiles": "C#CCN(C)Cc1ccccc1", "activation": "inconclusive: 70.4%"},
      {"smiles": "O=C(O)c1ccc2oc(=O)c(S(=O)(=O)c3ccccc3)cc2c1", "activation": "inconclusive: 39.2%"},
      {"smiles": "O=C(NCc1ccc(Cl)c(Cl)c1)c1cc(C2CCCCN2C(=O)C2CCCCC2)on1", "note": "(configuration not stated)", "activation": "inactive: -2.49%"},
      {"smiles": "CC(C)NC(=O)Nc1ccc2c(c1)C(=O)N([C@@H](C)CO)C[C@H](C)[C@@H](CN(C)Cc1ccc(C(=O)Nc3ccccc3N)cc1)O2", "activation": "inconclusive: 0.113%"},
      {"smiles": "COc1ccc(S(=O)(=O)N(C)C[C@@H]2OCCCC[C@@H](C)Oc3ccc(NC(=O)CCCN(C)C)cc3C(=O)N([C@@H](C)CO)C[C@H]2C)cc1", "activation": "inactive: 0.0405%"},
      {"smiles": "C[C@H](CO)N1C[C@H](C)[C@H](CN(C)C(=O)NC2CCCCC2)Oc2ccc(NS(=O)(=O)c3ccc(F)cc3)cc2C1=O", "activation": "inconclusive: -0.0175%"},
      {"smiles": "COc1ccc(CNc2ncnc3c2[nH]c2cc(OC)c(OC)cc23)cc1", "activation": "active: 66.9%"},
      {"smiles": "O=C(O)C1=CCNCC1", "activation": "inconclusive: 30.3%"},
      {"smiles": "CN(CC(=O)Nc1ccc(Cl)c(Cl)c1)C1CCCCC1", "activation": "active: 75.2%"},
      {"smiles": "Cc1ccc(S(=O)(=O)N(C)C[C@@H]2Oc3ccc(N(C)C)cc3C(=O)N([C@H](C)CO)C[C@H]2C)cc1", "activation": "active: 36.4%"},
      {"smiles": "CN(C)C(=O)c1ccc(-c2ccc([C@@H]3[C@@H](C#N)N(C(=O)Cc4ccccn4)[C@H]3CO)cc2)cc1", "activation": "inactive: 0.0905%"},
      {"smiles": "Cc1nc2c(-c3ccc(Cl)cc3)cnn2c2c1CCC2", "activation": "inconclusive: 55.8%"},
      {"smiles": "Cc1ccc([C@H]2C(C(=O)O)=CC[C@@H](c3cccs3)N2S(=O)(=O)c2ccc(C)cc2)cc1", "activation": "inactive: 0.0815%"},
      {"smiles": "CC(C)(C)OC(=O)NN1CC(=O)N2Cc3[nH]c4ccccc4c3C[C@H]2C1=O", "activation": "inconclusive: 44.7%"},
      {"smiles": "CNC(=O)c1ccccc1Sc1cccc2cccc(C(=O)O)c12", "activation": "inconclusive: 32.4%"},
      {"smiles": "Clc1cc(Br)ccc1OCCN1CCOCC1", "activation": "inactive: -0.863%"},
      {"smiles": "O=C(CCCN1C(=O)/C(=C/c2ccccc2Cl)SC1=S)NNC(=O)c1ccccc1", "activation": "inactive: -0.625%"},
      {"smiles": "COc1cccc(-c2nc(-c3ccc(C(=O)O)cc3)no2)c1", "activation": "inactive: 0.186%"},
      {"smiles": "O=C(NC1CC1)c1cc2c(s1)-c1ccccc1OC2", "activation": "inconclusive: 59.1%"},
      {"smiles": "COc1ccc(N(C)S(=O)(=O)c2cccc(C(=O)NCC3CCCCC3)c2)cc1", "activation": "inconclusive: 27%"},
      {"smiles": "C[C@@H]1CN([C@H](C)CO)C(=O)c2cc(NS(=O)(=O)c3cn(C)cn3)ccc2O[C@@H]1CN(C)CC1CCCCC1", "activation": "inactive: -0.0745%"},
      {"smiles": "C[C@H]1CN([C@@H](C)CO)C(=O)Cc2cc(NS(=O)(=O)c3ccc(F)cc3)ccc2O[C@H]1CN(C)S(=O)(=O)c1ccc(Cl)cc1", "activation": "active: 198%"},
      {"smiles": "Cc1ccccc1NC(=O)c1nc(S(C)(=O)=O)ncc1Cl", "activation": "inconclusive: 31.1%"},
      {"smiles": "C[C@@H]1CN([C@@H](C)CO)S(=O)(=O)c2ccc(C#CC3CC3)cc2O[C@@H]1CN(C)C(=O)c1ccccn1", "activation": "inactive: 2.54%"},
      {"smiles": "COc1ccc(CN(C)C[C@H]2Oc3ccc(NS(=O)(=O)c4cn(C)cn4)cc3CC(=O)N([C@H](C)CO)C[C@H]2C)cc1", "activation": "inconclusive: 0.117%"},
      {"smiles": "COc1ccc2[nH]c(=O)c(CN(c3ccccc3)S(=O)(=O)c3ccccc3)cc2c1", "activation": "active: 86.4%"},
      {"smiles": "C[C@@H]1CN([C@H](C)CO)C(=O)c2cccc(NC(=O)Nc3ccc(C(F)(F)F)cc3)c2O[C@@H]1CN(C)S(=O)(=O)c1cccs1", "activation": "inconclusive: 114%"},
      {"smiles": "O=C(CC1CC1)N1CC(=O)N2[C@@H](CO)[C@@H](c3ccc(-c4cccnc4)cc3)[C@@H]2C1", "activation": "inactive: 0.045%"},
      {"smiles": "COc1ccc2sc(/C=C/c3ccccc3O)[n+](C)c2c1", "activation": "inconclusive: 132%"},
      {"smiles": "Cc1nc(-c2ccc(Cl)cc2)sc1C1(C)CC(c2cccc(F)c2)=NO1", "note": "(configuration not stated)", "activation": "inactive: 0.046%"},
      {"smiles": "CC(C)NC(=O)Nc1ccc2c(c1)CC(=O)N([C@@H](C)CO)C[C@H](C)[C@H](CN(C)Cc1ccc(C(=O)O)cc1)O2", "activation": "active: 41.7%"},
      {"smiles": "CCN1CCN(C(=O)CCc2nnc(CCc3c[nH]c4ccccc34)o2)[C@@H](C)C1=O", "activation": "inconclusive: 38.1%"},
      {"smiles": "COc1cccc(CCC(=O)N2CCC(n3nccc3NC(=O)CC(C)C)CC2)c1", "activation": "active: 39.2%"},
      {"smiles": "CO[C@H]1CN(C)C(=O)c2cc(NC(=O)C3CCC3)ccc2OC[C@@H](C)N(C)C[C@H]1C", "activation": "inactive: 0.282%"},
      {"smiles": "Cc1ccccc1N1CCN(S(=O)(=O)c2cccs2)CC1", "activation": "inactive: -0.324%"},
      {"smiles": "COc1cc(C(=O)N2CCN(S(=O)(=O)c3ccc(Cl)cc3)CC2)ccc1OCC(=O)N1CCOCC1", "activation": "inconclusive: 32.5%"},
      {"smiles": "C[C@H](CO)N1C[C@H](C)[C@H](CN(C)Cc2ccc(C(F)(F)F)cc2)Oc2c(NC(=O)NC3CCCCC3)cccc2C1=O", "activation": "inactive: 0.722%"},
      {"smiles": "O=C(C[C@@H]1CC[C@H]2[C@@H](COC[C@@H](O)CN2Cc2cccc(F)c2)O1)NCC1CCCCC1", "activation": "inactive: 0.0705%"},
      {"smiles": "O=C(CSc1ncn[nH]1)c1cccc([N+](=O)[O-])c1", "activation": "active: 38.3%"},
      {"smiles": "C[C@@H]1CCCCO[C@@H](CN(C)S(=O)(=O)c2cn(C)cn2)[C@@H](C)CN([C@H](C)CO)C(=O)c2cc(NC(=O)C3CCCCC3)ccc2O1", "activation": "inconclusive: 26.3%"},
      {"smiles": "O=C1C(=Cc2cccc(F)c2)Cc2ccccc21", "activation": "inconclusive: 52.1%"},
      {"smiles": "C[C@H]1CN([C@@H](C)CO)C(=O)Cc2cc(NC(=O)Nc3ccc4c(c3)OCO4)ccc2O[C@H]1CN(C)S(=O)(=O)c1cn(C)cn1", "activation": "inconclusive: 186%"},
      {"smiles": "COc1ccc(NC(=O)N(C)C[C@H]2Oc3c(NS(=O)(=O)c4cn(C)cn4)cccc3C(=O)N([C@@H](C)CO)C[C@@H]2C)cc1", "activation": "active: 39.1%"},
      {"smiles": "COC(=O)CCCn1cc(CN2CC(N3CCN(Cc4ccccc4F)CC3)CS2(=O)=O)nn1", "note": "(configuration not stated)", "activation": "inconclusive: 138%"},
      {"smiles": "O=C(NCc1ccccc1)C(c1ccc(C(F)(F)F)cc1)N1CCN(CCN2CCOCC2)CC1", "note": "(configuration not stated)", "activation": "inconclusive: 116%"}
    ]}
  ]
}
